# Source: the supplement of paper PMC12217912
# The list shows a part of the results. Sequences were assembled here from the parent chain. Inactive controls read about 0.05.
# B1: TEV protease; numbered along this chain (parent)
# chain: MGESLFKGPRDYNPISSSICHLTNESDGHTTSLYGIGFGPFIITNKHLFRRNNGTLVVQSLHGVFKVKDTTTLQQHLVDGRDMIIIRMPKDFPPFPQKLKFREPQREERICLVTTNFQTKSMSSMVSDTSCTFPSGDGIFWKHWIQTKDGQCGSPLVSTRDGFIVGIHSASNFTNTNNYFTSVPKNFMELLTNQEAQQWVSGWRLNADSVLWGGHKVFMVKPEEPFQPVKEATQL
# Variants of: B1
# Experiment: raw area under fraction-flipped curve 0-4 h after induction (AUC4h, not background-subtracted), DNA-recorder readout of cleavage of the substrate (dimensionless); higher = more cleavage of the substrate by the protease variant
# Details: temperature: 34 °C; time window: 0-4 h after rhamnose induction
# Experimental: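 In vivo DNA recorder in E. coli TOP10(DE3) ΔrhaA at 34 °C. Each TEVp single-site mutant (parent TEVp 0) is paired with a single-site variant of the 7-mer TEVs (canonical ENLYFQ|S). The substrate sits between flexible linkers in a Bxb1-sfGFP-TEVs-SsrA fusion, so cleavage stabilises Bxb1 and speeds flipping of a recombination array, read by NGS. The value is the raw area under the fraction-flipped curve over 0-4 h after rhamnose induction (AUC4h), with ≥20 reads per time point. It is not background-subtracted; inactive controls average about 0.047.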
# 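Note: Bxb1 expression induced with 0.2% (w/v) L-rhamnose at OD600 near 0.5, cultures sampled hourly, flipped fraction per protease–substrate barcode pair counted by paired-end Illumina sequencing.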
Variant,area with substrate ENLYFAS,area with substrate ENLYFDS,area with substrate ENLYFFS,area with substrate ENLYFHS,area with substrate ENLYFRS,area with substrate ENLYFYS,area with substrate ENLYFES,area with substrate ENLYFGS,area with substrate ENLYFIS,area with substrate ENLYFKS
MGESLFKGPRDYNPISSSICHLTNESDGHTTSLYGIGFGPFIITNKHLFRRNNGTLVVQSLHGVFKVKDTTTLQQHLVDGRDMIIIRMPKDFPPFPQKLKFREPQREERICLVTTNFQTKSMSSMVSDTSCTFPSGDGIFWKHWIQTKPGQCGSPLVSTRDGFIVGIHSASNFTNTNNYFTSVPKNFMELLTNQEAQQWVSGWRLNADSVLWGGHKVFMVKPEEPFQPVKEATQL [D149P],0.0644,0.0417,0.104,0.0487,0.058,0.0518,–,–,–,–
MGESLFKGPRDYNPISSSICHLTNESDGHTTSLYGIGFGPFIITNKHLFRRNNGTLVVQSLHGVFKVKDTTTLQQHLVDGRDMIIIRMPKDFPPFPQKLKFREPQREERICLVTTNFQTKSMSSMVSDTSCTFPSGDGIFWKHWIQTKDGQCGSPLVSTRGGFIVGIHSASNFTNTNNYFTSVPKNFMELLTNQEAQQWVSGWRLNADSVLWGGHKVFMVKPEEPFQPVKEATQL [D161G],0.0474,–,–,–,–,0.0426,0.0556,0.0594,0.0568,0.0683
MGESLFKGPRDYNPISSSICHLTNESDGHTTSLYGIGFGPFIITNKHLFRRNNGTLVVQSLHGVFKVKDTTTLQQHLDDGRDMIIIRMPKDFPPFPQKLKFREPQREERICLVTTNFQTKSMSSMVSDTSCTFPSGDGIFWKHWIQTKDGQCGSPLVSTRDGFIVGIHSASNFTNTNNYFTSVPKNFMELLTNQEAQQWVSGWRLNADSVLWGGHKVFMVKPEEPFQPVKEATQL [V78D],0.049,–,0.0569,0.0489,0.0357,0.0577,0.0553,0.0618,0.052,0.0617
MGESLFKGPRDYNPISSSICHLTNESDGHTTSLYGIGFGPFIITNKHLFRRNNGTLVVQSLHGVFKVKDTTTLQQHLVDGRDMIIIRMPKDFPPFPQKLKFREPQREERICLVTTNFQTKSMSSMVSDTSCTFPSGDGIFWKHWIQTKDGQCGSPLVSTRDGFIVGIHSASNFTNTNNYFTSVPKNFMELLTNQEAQQWVSGWRLRADSVLWGGHKVFMVKPEEPFQPVKEATQL [N206R],0.0494,0.0451,0.0684,0.0804,0.072,–,0.0663,0.065,–,0.0696
MGESLFKGPRDYNPISSSICHLTNESDGHTTSLYGIGFGPFIITNKHLFRRNNGTLVVQSLHGVFKVKDTTTLQQHLVDGRDMIIIRMPKDFPPFPQKLKFREPQREERICLVTTNFQTKSMSSMVSDTSCTFPSGDGIFWKHWIQTKDGQCGSPLVSTRDGFIVGIHSWSNFTNTNNYFTSVPKNFMELLTNQEAQQWVSGWRLNADSVLWGGHKVFMVKPEEPFQPVKEATQL [A170W],0.0608,–,0.0694,0.0535,–,–,–,–,0.0615,–
MGESLFKGPRDYNPISSSICHLTNESDGHTTSLYGIGFGPFIITNKHLFRRNNGTLVVQSLHGVFKVKDTTTLQQHLVDGRDMIIIRMPKDFPPFPQKLKFREPQREERICLVTTNFQTKSMSSMVSDTSCTFPSGDGIFWKHWIQTKDGQCGSPLVSTRDGFIVGIHSASNFTNTNNYFTSVPKNFMELLTNQEAQQWVSGWRLNADSVLWCGHKVFMVKPEEPFQPVKEATQL [G213C],0.05,–,0.0638,0.0521,0.064,–,0.0535,–,0.0561,0.0647
MGESLFKGPRDYNPISSSICHLTNESDGHTTSLYGIGFGPFIITNKHLFRRNNGTLVVQSLHGVFKVKDTTTLQQHLVEGRDMIIIRMPKDFPPFPQKLKFREPQREERICLVTTNFQTKSMSSMVSDTSCTFPSGDGIFWKHWIQTKDGQCGSPLVSTRDGFIVGIHSASNFTNTNNYFTSVPKNFMELLTNQEAQQWVSGWRLNADSVLWGGHKVFMVKPEEPFQPVKEATQL [D79E],0.0546,–,–,–,–,–,–,0.0564,0.0604,–
MGESLFKGPRDYNPISSSICHLTNESDGHTTSLYGIGFGPFIITNKHLFRRNNGTLVVQSLHGVFKVKDTTTLQQHLVDGRDMIIIRMPKDFPPFPQKLKFREPQREERICLWTTNFQTKSMSSMVSDTSCTFPSGDGIFWKHWIQTKDGQCGSPLVSTRDGFIVGIHSASNFTNTNNYFTSVPKNFMELLTNQEAQQWVSGWRLNADSVLWGGHKVFMVKPEEPFQPVKEATQL [V113W],0.0617,–,–,–,0.067,0.0609,–,–,0.058,–
MGESLFKGPRDYNPISSSICHLTNESDGHTTSLYGIGFGPFIITNKHLFRRNNGTLVVQSLHGVFKVKDTTTLQQHLVDGRDMIIIRMPKDFPPFPQKLKFREPQREERICLVTTNFQTKSMSSMVSDTSCTFPSGDGIFWKHWIQTKDGQCGSPLVSTRDGFIVGIHSASNFTSTNNYFTSVPKNFMELLTNQEAQQWVSGWRLNADSVLWGGHKVFMVKPEEPFQPVKEATQL [N175S],0.0543,–,0.0763,–,0.0681,–,0.0694,0.0706,0.0697,–
MGESLFKGPRDYNPISSSICHLTNESDGHTTSLYGIGFGPFIITNKHLFRRNNGTLVVQSLHGVFKVKDTTTLQQHLVDGRDEIIIRMPKDFPPFPQKLKFREPQREERICLVTTNFQTKSMSSMVSDTSCTFPSGDGIFWKHWIQTKDGQCGSPLVSTRDGFIVGIHSASNFTNTNNYFTSVPKNFMELLTNQEAQQWVSGWRLNADSVLWGGHKVFMVKPEEPFQPVKEATQL [M83E],0.0535,0.0373,0.0532,–,–,0.0624,0.0677,–,–,0.0787

# Same assay, conditions: temperature: 34 °C; time window: 0-4 h after rhamnose induction
Variant,area with substrate ENLYFMS,area with substrate ENLYFNS,area with substrate ENLYFPS,area with substrate ENLYFWS,area with substrate ENLYFCS,area with substrate ENLYFSS,area with substrate ENLYFTS,area with substrate ENLYFVS,area with substrate ENLYFLS
MGESLFKGPRDYNPISSSICHLTNESDGHTTSLYGIGFGPFIITNKHLFRRNNGTLVVQSLHGVFKVKDTTTLQQHLVDGRDMIIIRMPKDFPPFPQKLKFREPQREERICLVTTNFQTKSMSSMVSDTSCTFPSGDGIFWKHWIQTKDGQCGSPLVSTRGGFIVGIHSASNFTNTNNYFTSVPKNFMELLTNQEAQQWVSGWRLNADSVLWGGHKVFMVKPEEPFQPVKEATQL [D161G],0.0629,0.0652,0.0521,0.0613,–,–,–,–,–
MGESLFKGPRDYNPISSSICHLTNESDGHTTSLYGIGFGPFIITNKHLFRRNNGTLVVQSLHGVFKVKDTTTLQQHLDDGRDMIIIRMPKDFPPFPQKLKFREPQREERICLVTTNFQTKSMSSMVSDTSCTFPSGDGIFWKHWIQTKDGQCGSPLVSTRDGFIVGIHSASNFTNTNNYFTSVPKNFMELLTNQEAQQWVSGWRLNADSVLWGGHKVFMVKPEEPFQPVKEATQL [V78D],0.0614,0.0503,0.0571,0.0569,0.0568,0.0558,–,–,–
MGESLFKGPRDYNPISSSICHLTNESDGHTTSLYGIGFGPFIITNKHLFRRNNGTLVVQSLHGVFKVKDTTTLQQHLVDGRDMIIIRMPKDFPPFPQKLKFREPQREERICLVTTNFQTKSMSSMVSDTSCTFPSGDGIFWKHWIQTKDGQCGSPLVSTRDGFIVGIHSASNFTNTNNYFTSVPKNFMELLTNQEAQQWVSGWRLRADSVLWGGHKVFMVKPEEPFQPVKEATQL [N206R],0.0613,0.0652,0.0681,–,–,–,0.0608,0.0604,–
MGESLFKGPRDYNPISSSICHLTNESDGHTTSLYGIGFGPFIITNKHLFRRNNGTLVVQSLHGVFKVKDTTTLQQHLVDGRDMIIIRMPKDFPPFPQKLKFREPQREERICLVTTNFQTKSMSSMVSDTSCTFPSGDGIFWKHWIQTKDGQCGSPLVSTRDGFIVGIHSWSNFTNTNNYFTSVPKNFMELLTNQEAQQWVSGWRLNADSVLWGGHKVFMVKPEEPFQPVKEATQL [A170W],–,0.0362,0.0666,–,–,–,0.0615,–,–
MGESLFKGPRDYNPISSSICHLTNESDGHTTSLYGIGFGPFIITNKHLFRRNNGTLVVQSLHGVFKVKDTTTLQQHLVDGRDMIIIRMPKDFPPFPQKLKFREPQREERICLVTTNFQTKSMSSMVSDTSCTFPSGDGIFWKHWIQTKDGQCGSPLVSTRDGFIVGIHSASNFTNTNNYFTSVPKNFMELLTNQEAQQWVSGWRLNADSVLWCGHKVFMVKPEEPFQPVKEATQL [G213C],–,–,0.0558,–,–,0.0529,–,–,–
MGESLFKGPRDYNPISSSICHLTNESDGHTTSLYGIGFGPFIITNKHLFRRNNGTLVVQSLHGVFKVKDTTTLQQHLVEGRDMIIIRMPKDFPPFPQKLKFREPQREERICLVTTNFQTKSMSSMVSDTSCTFPSGDGIFWKHWIQTKDGQCGSPLVSTRDGFIVGIHSASNFTNTNNYFTSVPKNFMELLTNQEAQQWVSGWRLNADSVLWGGHKVFMVKPEEPFQPVKEATQL [D79E],–,–,–,0.0235,0.0748,–,–,–,0.0652
MGESLFKGPRDYNPISSSICHLTNESDGHTTSLYGIGFGPFIITNKHLFRRNNGTLVVQSLHGVFKVKDTTTLQQHLVDGRDMIIIRMPKDFPPFPQKLKFREPQREERICLWTTNFQTKSMSSMVSDTSCTFPSGDGIFWKHWIQTKDGQCGSPLVSTRDGFIVGIHSASNFTNTNNYFTSVPKNFMELLTNQEAQQWVSGWRLNADSVLWGGHKVFMVKPEEPFQPVKEATQL [V113W],–,0.064,0.0786,–,0.0505,0.0533,0.0617,0.0633,–
MGESLFKGPRDYNPISSSICHLTNESDGHTTSLYGIGFGPFIITNKHLFRRNNGTLVVQSLHGVFKVKDTTTLQQHLVDGRDMIIIRMPKDFPPFPQKLKFREPQREERICLVTTNFQTKSMSSMVSDTSCTFPSGDGIFWKHWIQTKDGQCGSPLVSTRDGFIVGIHSASNFTSTNNYFTSVPKNFMELLTNQEAQQWVSGWRLNADSVLWGGHKVFMVKPEEPFQPVKEATQL [N175S],0.0668,–,0.0636,–,0.101,–,–,–,–
MGESLFKGPRDYNPISSSICHLTNESDGHTTSLYGIGFGPFIITNKHLFRRNNGTLVVQSLHGVFKVKDTTTLQQHLVDGRDEIIIRMPKDFPPFPQKLKFREPQREERICLVTTNFQTKSMSSMVSDTSCTFPSGDGIFWKHWIQTKDGQCGSPLVSTRDGFIVGIHSASNFTNTNNYFTSVPKNFMELLTNQEAQQWVSGWRLNADSVLWGGHKVFMVKPEEPFQPVKEATQL [M83E],0.0495,0.0581,0.0494,–,0.0314,0.0512,0.0672,–,–
